PMC4336329 (PLoS ONE, 2015)
In all, about 310,000 compounds went through this assay and about 14,000 (4.5%) showed an effect of 50% or more. Effects have a minus sign here. Some of the results follow.

Target: human ether-à-go-go-related gene (hERG) potassium channel (human, UniProt Q12809)
Assay: primary screen, population patch clamp on CHO cells stably expressing hERG
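Note: peak tail current of the secondary pulse compared with the same well before compound.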

Chain of human ether-à-go-go-related gene (hERG) potassium channel (Q12809 whole entry, looked up): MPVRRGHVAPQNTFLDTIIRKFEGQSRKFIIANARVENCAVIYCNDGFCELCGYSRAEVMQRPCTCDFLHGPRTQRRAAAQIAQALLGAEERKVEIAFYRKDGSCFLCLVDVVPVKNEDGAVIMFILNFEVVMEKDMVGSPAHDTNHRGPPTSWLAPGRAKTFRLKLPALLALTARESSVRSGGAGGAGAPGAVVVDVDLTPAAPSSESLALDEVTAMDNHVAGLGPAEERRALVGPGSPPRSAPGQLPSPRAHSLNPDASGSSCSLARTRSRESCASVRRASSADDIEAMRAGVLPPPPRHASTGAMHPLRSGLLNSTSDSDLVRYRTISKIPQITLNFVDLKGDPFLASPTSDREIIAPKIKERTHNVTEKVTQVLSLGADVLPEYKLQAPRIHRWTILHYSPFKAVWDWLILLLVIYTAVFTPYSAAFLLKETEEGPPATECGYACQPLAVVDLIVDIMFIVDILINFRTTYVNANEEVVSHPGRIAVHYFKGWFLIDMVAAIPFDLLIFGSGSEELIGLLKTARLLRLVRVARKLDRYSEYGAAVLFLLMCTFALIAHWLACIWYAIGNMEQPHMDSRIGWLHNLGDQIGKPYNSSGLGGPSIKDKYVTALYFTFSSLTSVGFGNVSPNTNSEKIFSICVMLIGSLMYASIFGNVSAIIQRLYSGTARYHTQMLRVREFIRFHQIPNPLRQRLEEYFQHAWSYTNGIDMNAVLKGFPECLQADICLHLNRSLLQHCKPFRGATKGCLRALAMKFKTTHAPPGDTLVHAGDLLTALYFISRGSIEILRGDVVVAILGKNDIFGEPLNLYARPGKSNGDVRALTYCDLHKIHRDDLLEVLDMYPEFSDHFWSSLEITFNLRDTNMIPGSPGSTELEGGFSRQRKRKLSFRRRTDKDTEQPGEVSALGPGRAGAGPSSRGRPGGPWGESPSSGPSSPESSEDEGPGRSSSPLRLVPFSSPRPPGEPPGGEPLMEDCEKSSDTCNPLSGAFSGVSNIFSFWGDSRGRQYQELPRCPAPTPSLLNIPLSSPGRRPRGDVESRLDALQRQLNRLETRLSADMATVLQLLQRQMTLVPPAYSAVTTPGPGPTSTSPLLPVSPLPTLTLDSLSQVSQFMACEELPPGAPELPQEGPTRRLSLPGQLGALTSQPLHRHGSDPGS

Question: Which “hERG current change (%, negative = inhibition) at 10uM” value does the source give for `CCN(CC)C(=O)Cn1cc(C(=O)C(=O)NCC2COc3ccccc3O2)c2ccccc21` (stereo not drawn) here?
Answer: -31.3%

Question: With `CCCCn1nnnc1SCC(=O)Nc1ccc(N(C)C)cc1` as the compound, how does the “hERG current change (%, negative = inhibition) at 10uM” value read?
Answer: 2.43%

Question: `O=C1NN=C(c2ccc(Cl)cc2)CC1c1cccc(Br)c1` (stereo not drawn) was tested. Which “hERG current change (%, negative = inhibition) at 10uM” value did it give?
Answer: 4.07%

Question: Which “hERG current change (%, negative = inhibition) at 10uM” value does the source give for `COc1ccc(CC(=O)NCC2COc3ccccc3O2)cc1` (stereo not drawn) here?
Answer: -1.08%

Question: With `CCS(=O)(=O)CCn1c([N+](=O)[O-])cnc1C` as the compound, how does the “hERG current change (%, negative = inhibition) at 10uM” value read?
Answer: 3.01%

Question: Which “hERG current change (%, negative = inhibition) at 10uM” value does the source give for `NC(=O)c1c(NC(=O)c2ccc([N+](=O)[O-])o2)sc2c1CCCC2` here?
Answer: 25.3%

Question: `CCc1nn(C(CC)C(=O)NCCCc2ccccc2)c(=O)c2cc3occc3n12` (stereo not drawn) was tested. Which “hERG current change (%, negative = inhibition) at 10uM” value did it give?
Answer: -8.43%

Question: Which “hERG current change (%, negative = inhibition) at 10uM” value does the source give for `COc1ccc(CCN2CC(C(=O)Nc3cc(F)ccc3F)CC2=O)cc1OC` (stereo not drawn) here?
Answer: -0.742%

Question: How did the “hERG current change (%, negative = inhibition) at 10uM” value turn out when `CN(C)C(/C=C/Nc1ccccc1F)=C(C#N)C#N` was run?
Answer: 9.69%

Question: How did the “hERG current change (%, negative = inhibition) at 10uM” value turn out when `CCOC(=O)Cc1csc(NC(=O)c2cc(C)on2)n1` was run?
Answer: 5.17%

Question: How did the “hERG current change (%, negative = inhibition) at 10uM” value turn out when `O=C(CNC(=O)c1ccc2c(c1)OCCO2)N/N=C/c1ccc(O)cc1O` was run?
Answer: 0.243%

Question: `COc1ccc(N2CCN(C(=O)CN3C(=O)NC(c4ccc(OC)cc4)(c4ccc(OC)cc4)C3=O)CC2)cc1` was tested. Which “hERG current change (%, negative = inhibition) at 10uM” value did it give?
Answer: -4.55%

Question: For `CCOC(=O)C1=C(O)C(=O)N(Cc2cccnc2)C1c1ccc(OC)cc1` (stereo not drawn), which “hERG current change (%, negative = inhibition) at 10uM” value is on record?
Answer: 22.6%

Question: How did the “hERG current change (%, negative = inhibition) at 10uM” value turn out when `COc1ccc(S(=O)(=O)N(C)CC(=O)NCc2ccccc2)cc1OC` was run?
Answer: 4.31%

Question: How did the “hERG current change (%, negative = inhibition) at 10uM” value turn out when `Cc1ccc(NC(=O)NCCCN2CCCC2=O)cc1C` was run?
Answer: 18.6%

Question: For `CSc1nsc(SC)c1NC(=O)OCc1ccccc1`, which “hERG current change (%, negative = inhibition) at 10uM” value is on record?
Answer: -11%

Question: With `Cc1ccc(S(=O)(=O)N2CCCC2CNC(=O)C(=O)Nc2ccc(F)cc2F)cc1` (stereo not drawn) as the compound, how does the “hERG current change (%, negative = inhibition) at 10uM” value read?
Answer: -30.9%

Question: `CN1CC(C(=O)c2ccc(Cl)cc2)C(c2ccccc2F)C1` (stereo not drawn) was tested. Which “hERG current change (%, negative = inhibition) at 10uM” value did it give?
Answer: -46.5%

Question: For `Nc1nnnn1/N=C/c1cc(Cl)cc(Cl)c1O`, which “hERG current change (%, negative = inhibition) at 10uM” value is on record?
Answer: 20.2%

Question: Which “hERG current change (%, negative = inhibition) at 10uM” value does the source give for `CC1(C)CC(NC(=O)CCC2CCCC2)CC(C)(C)N1` here?
Answer: -2.63%

Question: Which “hERG current change (%, negative = inhibition) at 10uM” value does the source give for `CCOC(=O)c1c(NC(=O)CSC(=S)N2CCOCC2)sc(C)c1C` here?
Answer: -8.09%

Question: With `Cc1ccccc1C(=O)NNC(=O)C(=O)Nc1cccc(Cl)c1C` as the compound, how does the “hERG current change (%, negative = inhibition) at 10uM” value read?
Answer: 10.5%

Question: `Cc1ccc(-c2nnc(SCC(=O)N/N=C/c3ccccc3C(=O)O)n2-c2ccc(C)cc2)cc1` was tested. Which “hERG current change (%, negative = inhibition) at 10uM” value did it give?
Answer: 3.7%

Question: Which “hERG current change (%, negative = inhibition) at 10uM” value does the source give for `O=C(NCCC1=CCCCC1)c1cc(S(=O)(=O)N2CCOCC2)c(Cl)cc1Cl` here?
Answer: 10.7%

Question: How did the “hERG current change (%, negative = inhibition) at 10uM” value turn out when `O=C(NCCO)c1ccc(Oc2ccc(C(F)(F)F)cc2[N+](=O)[O-])cc1` was run?
Answer: -0.131%

Question: How did the “hERG current change (%, negative = inhibition) at 10uM” value turn out when `COc1ccc(CCNC(=O)c2c(C)nn(-c3ccccc3)c2Cl)cc1OC` was run?
Answer: 10.6%

Question: `O=[N+]([O-])c1ccc(N/N=C/c2ccc(OCc3cccc4ccccc34)cc2)nc1` was tested. Which “hERG current change (%, negative = inhibition) at 10uM” value did it give?
Answer: 13.4%

Question: With `COc1cccc(CN(C)CC(=O)Nc2cccc(S(N)(=O)=O)c2)c1OC` as the compound, how does the “hERG current change (%, negative = inhibition) at 10uM” value read?
Answer: -4.27%

Question: With `Cn1c(O)c(/C=N/NC(=O)c2ccncc2)c(=O)n(C)c1=S` as the compound, how does the “hERG current change (%, negative = inhibition) at 10uM” value read?
Answer: 13.4%

Question: With `CC(NC(=O)COC(=O)c1ccc(CO)cc1)C1CC2CCC1C2` (stereo not drawn) as the compound, how does the “hERG current change (%, negative = inhibition) at 10uM” value read?
Answer: 7.65%

Question: Which “hERG current change (%, negative = inhibition) at 10uM” value does the source give for `N#C/C(=C\C1=C(N2CCOCC2)C(=C/c2cccc([N+](=O)[O-])c2)/CC1)C(=O)Nc1ccccc1F` here?
Answer: 5.79%

Question: For `CC(=O)Nc1cccc(-c2nnc3n2CC(C)S3)c1` (stereo not drawn), which “hERG current change (%, negative = inhibition) at 10uM” value is on record?
Answer: 14.3%

Question: How did the “hERG current change (%, negative = inhibition) at 10uM” value turn out when `CCCCC(=O)Nc1nnc(S(=O)(=O)N2CCCc3ccccc32)s1` was run?
Answer: 6.69%

Question: How did the “hERG current change (%, negative = inhibition) at 10uM” value turn out when `Cc1cccc(OCC(=O)OC2CCN(C)CC2)c1.Cl` was run?
Answer: 0.454%

Question: How did the “hERG current change (%, negative = inhibition) at 10uM” value turn out when `CCN(CC)c1ccc2c(c1)C(=O)N(C)C2=O` was run?
Answer: 10.6%

Question: With `Cc1cc(/C=C2/NC(=O)NC2=O)c(C)n1-c1cccnc1` as the compound, how does the “hERG current change (%, negative = inhibition) at 10uM” value read?
Answer: 9.26%

Question: Which “hERG current change (%, negative = inhibition) at 10uM” value does the source give for `COc1ccc(/C=C/C(=O)NC(=S)NN2CCCCC2c2cccnc2)cc1OC` (stereo not drawn) here?
Answer: 3.25%

Question: `COC(=O)c1ccc(NC(=O)COC(=O)C2=NN(c3ccccc3)C(=O)CC2)cc1` was tested. Which “hERG current change (%, negative = inhibition) at 10uM” value did it give?
Answer: 0.388%

Question: Which “hERG current change (%, negative = inhibition) at 10uM” value does the source give for `O=C(Cc1ccc(-c2ccccc2)cc1)Nc1ccccn1` here?
Answer: 22.3%

Question: How did the “hERG current change (%, negative = inhibition) at 10uM” value turn out when `COc1ccc(-c2nn(-c3ccccc3)cc2C(=O)Nc2ccc(C(=O)O)cc2)cc1OC` was run?
Answer: 11.1%

Question: How did the “hERG current change (%, negative = inhibition) at 10uM” value turn out when `CC(C)(C)c1ccc(OCCC(=O)NCC(c2cccs2)N2CCOCC2)cc1` (stereo not drawn) was run?
Answer: -43.9%

Question: How did the “hERG current change (%, negative = inhibition) at 10uM” value turn out when `C#CCOCCOCCOCCNc1nc(N2CCN(C(=O)[C@H]([C@@H](C)CC)n3cc([C@@H](N)Cc4ccc(O)cc4)nn3)CC2)nc(N2CCN(C(=O)[C@H]([C@@H](C)CC)n3cc([C@@H](N)Cc4ccc(O)cc4)nn3)CC2)n1.Cl` was run?
Answer: 8.94%

Question: With `O=C(Cn1ncc2c(=O)oc3ccccc3c21)N1CCN(C(=O)c2ccco2)CC1` as the compound, how does the “hERG current change (%, negative = inhibition) at 10uM” value read?
Answer: -73.6%

Question: `CN(C)CCNC(=O)c1cccn(Cc2cc(C(F)(F)F)cc(C(F)(F)F)c2)c1=O` was tested. Which “hERG current change (%, negative = inhibition) at 10uM” value did it give?
Answer: -14.8%

Question: For `Br.O=[N+]([O-])c1cccc(-n2nnnc2CN2CCCC2)c1`, which “hERG current change (%, negative = inhibition) at 10uM” value is on record?
Answer: -7.57%

Question: `Cc1cccc(C2c3[nH]c4ccccc4c3CCN2Cc2ccc(C)s2)n1` (stereo not drawn) was tested. Which “hERG current change (%, negative = inhibition) at 10uM” value did it give?
Answer: 12.7%

Question: Which “hERG current change (%, negative = inhibition) at 10uM” value does the source give for `CCn1cc(C(=O)O)c(=O)c2cnc(N3CCN(C(=S)NC(=O)c4ccc(Cl)cc4Cl)CC3)nc21` here?
Answer: 14.9%

Question: Which “hERG current change (%, negative = inhibition) at 10uM” value does the source give for `CCc1ccc(NC(=O)CC2NCCNC2=O)cc1` (stereo not drawn) here?
Answer: 2.24%

Question: Which “hERG current change (%, negative = inhibition) at 10uM” value does the source give for `CCOC(=O)C1=C(C)N=C2c3ccccc3C(=O)C2C1c1ccc(Cl)cc1` (stereo not drawn) here?
Answer: 4.86%

Question: Which “hERG current change (%, negative = inhibition) at 10uM” value does the source give for `Cn1c(=NC(=O)CCS(=O)(=O)c2ccccc2)sc2cc(F)ccc21` here?
Answer: 9.26%

Question: With `O=C(Cc1csc(-c2ccccc2)n1)NCc1cccs1` as the compound, how does the “hERG current change (%, negative = inhibition) at 10uM” value read?
Answer: -8.31%

Question: How did the “hERG current change (%, negative = inhibition) at 10uM” value turn out when `CCCNC(=O)C1CCN(S(=O)(=O)c2cccs2)CC1` was run?
Answer: 28.1%

Question: For `CCCCN(C(=O)CCCc1nc2ccccc2s1)c1c(N)n(CCCC)c(=O)[nH]c1=O`, which “hERG current change (%, negative = inhibition) at 10uM” value is on record?
Answer: 11.6%

Question: `CN(CC(=O)NCc1ccc(F)cc1)S(=O)(=O)c1ccc2c(c1)c(=O)n(C)c(=O)n2C` was tested. Which “hERG current change (%, negative = inhibition) at 10uM” value did it give?
Answer: -19%
